# According to paper PMC4336329 (PLoS ONE, 2015):
# Screen size: about 310,000 compounds; about 14,000 (4.5%) showed an effect of 50% or more. Effects have a minus sign here. This is one part of the list.
# Target: human ether-à-go-go-related gene (hERG) potassium channel (human, UniProt Q12809)
# Assay: primary screen, population patch clamp on CHO cells stably expressing hERG
# 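Further: peak tail current of the secondary pulse compared with the same well before compound.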
# Chain of human ether-à-go-go-related gene (hERG) potassium channel (Q12809 whole entry, looked up): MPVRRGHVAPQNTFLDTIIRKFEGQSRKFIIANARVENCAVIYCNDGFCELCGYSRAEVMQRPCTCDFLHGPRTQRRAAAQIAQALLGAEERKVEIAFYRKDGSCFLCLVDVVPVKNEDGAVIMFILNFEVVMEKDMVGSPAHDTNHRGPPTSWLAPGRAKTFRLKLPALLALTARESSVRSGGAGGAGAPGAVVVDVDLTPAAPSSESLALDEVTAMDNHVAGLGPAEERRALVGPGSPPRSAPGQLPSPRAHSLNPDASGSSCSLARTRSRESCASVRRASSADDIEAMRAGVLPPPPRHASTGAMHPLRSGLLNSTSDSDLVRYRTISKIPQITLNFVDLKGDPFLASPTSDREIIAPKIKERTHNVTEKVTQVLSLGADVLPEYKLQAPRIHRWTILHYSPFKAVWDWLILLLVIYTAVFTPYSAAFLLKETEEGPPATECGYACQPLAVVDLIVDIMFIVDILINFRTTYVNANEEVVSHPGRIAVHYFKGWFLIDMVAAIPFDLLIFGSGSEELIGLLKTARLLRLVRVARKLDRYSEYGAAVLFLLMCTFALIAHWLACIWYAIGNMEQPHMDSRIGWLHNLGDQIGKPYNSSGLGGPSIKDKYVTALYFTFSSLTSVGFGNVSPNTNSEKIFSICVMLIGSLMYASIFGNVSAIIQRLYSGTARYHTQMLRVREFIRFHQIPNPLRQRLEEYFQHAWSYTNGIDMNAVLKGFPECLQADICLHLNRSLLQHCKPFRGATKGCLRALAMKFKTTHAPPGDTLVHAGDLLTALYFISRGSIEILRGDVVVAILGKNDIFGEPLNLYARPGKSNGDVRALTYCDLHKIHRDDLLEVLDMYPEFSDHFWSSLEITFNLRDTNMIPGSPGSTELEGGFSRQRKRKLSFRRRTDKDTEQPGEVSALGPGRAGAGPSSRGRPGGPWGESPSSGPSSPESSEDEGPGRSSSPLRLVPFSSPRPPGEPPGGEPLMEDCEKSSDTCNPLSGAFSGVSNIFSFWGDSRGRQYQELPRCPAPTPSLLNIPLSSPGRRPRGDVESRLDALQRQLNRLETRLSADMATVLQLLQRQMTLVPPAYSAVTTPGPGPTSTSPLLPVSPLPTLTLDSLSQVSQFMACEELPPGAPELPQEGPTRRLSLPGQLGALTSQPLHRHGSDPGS
row,SMILES,"hERG current change (%, negative = inhibition) at 10uM [%]"
1,COc1ccc2cc3cc(C(=O)NCc4cccnc4)oc3nc2c1,-1.38
2,OCc1nc2ccccc2n1CCc1ccccc1,11.5
3,CCc1cccc(NC(=O)CCNS(=O)(=O)c2ccc3[nH]c(=O)oc3c2)c1,17.4
4,O=C(COc1ccccc1)OCc1cc2ccccc2[nH]c1=O,-4.79
5,COc1cc(C(C(=O)NC2CCCCC2)N(C(=O)Cc2c[nH]c3ccccc23)c2ccc(C)cc2)cc(OC)c1OC (stereo not shown),-0.359
6,COc1ccc(-c2ccc(NS(=O)(=O)c3cccc([N+](=O)[O-])c3)cc2)nn1,3.99
7,NS(=O)(=O)c1ccc(CCNC2CC(=O)N(CCc3ccccc3)C2=O)cc1 (stereo not shown),-4.14
8,CCOc1ccc(-n2ccc(=O)c(C(=O)O)n2)cc1,-1.15
9,CCCN(CC(=O)Nc1ccccc1C)C(=O)c1ccc(C)c(S(=O)(=O)N2CCCCC2)c1,-11.3
10,COc1ccc(-c2oc3ncnc(N)c3c2-c2ccccc2)cc1,6.52
11,COc1ccc(C(=O)NC(=S)Nc2ccc3[nH]c(=O)[nH]c3c2)cc1,15.5
12,Cc1cccc(CNc2ncnc3ccc(-c4ccoc4)cc23)c1,-12.4
13,CCCn1nnc(NC(=O)c2cccc(OCC)c2)n1,-4.78
14,c1ccc(Cn2ncc3c(N4CCOCC4)ncnc32)cc1,-2.77
15,N#Cc1ccc(C23CC4(C2)[C@H](CN(P(=O)(c2ccccc2)c2ccccc2)[C@@H]4c2ccccc2)C3c2ccc(Cl)nc2)cc1 (stereo partly shown),-8
16,COc1cccc(OCC(=O)N(Cc2nc(-c3ccc(Cl)cc3)no2)C(C)C)c1,-13.7
17,O=C(CSc1nc(-c2ccccc2)c(-c2ccccc2)o1)Nc1nncs1,4.9
18,O=P1(NCCCn2cc[n+](Cc3nc4ccccc4[nH]3)c2)C=C(c2ccccc2)OC(c2ccccc2)=C1.[Cl-],-63
19,CCNC(=O)CN(c1ccc(OC)c(OC)c1)S(=O)(=O)c1ccccc1,6.54
20,O=S(=O)(NCCNc1nccc(C(F)(F)F)n1)c1ccccc1,-4.14
21,COc1ccc(N2CCN(C(=O)c3ccccc3NC(=O)c3ccccc3)CC2)cc1,-5.15
22,CCOc1ccc(C(=O)Nc2cccc(-c3ccc(N4CCOCC4)nn3)c2)cc1OCC,0.747

row,SMILES,"hERG current change (%, negative = inhibition) at 10uM [%]"
1,CCCOc1cc(N)ccc1C(=O)OCCN(CC)CC.Cl,-18.9
2,Cc1ccnc(NC(=O)c2cccc(NC(=O)CC3SC(N4CCCCC4)=NC3=O)c2)c1 (stereo not shown),-23.6
3,CCOC(=O)C(NC(=O)CC)(Nc1cc(C)on1)C(F)(F)F (stereo not shown),-4.59
4,CN(C)S(=O)(=O)c1ccc(Cl)c(NC(=O)COC(=O)CN2C(=O)NC(C)(C)C2=O)c1,1.87
5,O=C(NCc1ccccc1C(F)(F)F)C1CC(c2cc(C(F)(F)F)cc(C(F)(F)F)c2)=NO1 (stereo not shown),12.9
6,O=C1C(=O)N(CCN2CCOCC2)C(c2ccccn2)/C1=C(/O)c1ccccc1 (stereo not shown),-1.23
7,CCCCC(=O)Nc1ccc(C(=O)NNC(=O)c2ccco2)cc1,11.2
8,c1ccc(-c2nnc3sc(-c4cc5ccccc5o4)nn23)cc1,15.1
9,COCC1CCCCN1Cc1cn(-c2ccccc2)nc1-c1ccc2c(c1)OCO2 (stereo not shown),-37.1
10,NC(=O)COc1ccc(/C=N/NS(=O)(=O)c2ccccc2)cc1,13.7
11,CC1CCC(NC(=O)COC(=O)c2cccnc2Cl)CC1 (stereo not shown),-35.8
12,CCCNC(=O)c1nc(C)n(-c2cc(Cl)ccc2Cl)n1,-0.534
13,Cc1ccc(OCC(=O)OCC(=O)NC2CCCC2)cc1C,15.6
14,O=c1[nH]c2c(s1)C(c1ccccc1)C1C3CCC(C3)C1S2 (stereo not shown),4.73
15,CC(=O)Nc1ccc(S(=O)(=O)N2CCN(c3cc(C)ccc3C)CC2)cc1,-9.12
16,Cl.Clc1cccc(OCCN2CCCC2)c1,2.13
17,O=C(Nc1ccc(F)cc1Cl)C1CCN(C(=O)Nc2ccccc2)CC1,3.16
18,Cc1cc(C(=O)NCCc2ccc(Cl)cc2)n(-c2ccccc2)n1,3.38
19,COc1ccc(CC2(CO)CCN(S(=O)(=O)N(C)C)CC2)cc1,9.82
20,CCOc1cc(C(=O)NCc2ccncc2)cc(OCC)c1OCC,2.4
21,CC1(C)CC(=O)C2=C(C1)Oc1ncn(CCO)c(=N)c1C2c1ccccc1 (stereo not shown),-35.3
